Data set [1] concerns human peripheral blood mononuclear cells. Kind of data set: Inhibition of R848-induced IFN-α production from human peripheral blood mononuclear cells by BDCA2-ADC. The format is cell-based. Particulars: 5 μM R848, 24 h. The method, then: The inhibitory effects of the antibody-drug conjugate molecules of the present application on the production from peripheral blood mononuclear cells were detected. Peripheral blood mononuclear cells produce a large number of cytokines after the stimulation of the TLR7/8 agonist R848. The peripheral blood mononuclear cells were treated in vitro with the BDCA2 antibody-drug conjugate at different concentrations, and IFNα and TNFα produced by the peripheral blood mononuclear cells were quantitatively detected after the stimulation of 5 μM R848 for a certain period of time. The in vitro activity of the ligand-drug conjugates was evaluated based on the extent of cytokine inhibition.
The cryopreserved human peripheral blood mononuclear cells were thawed, resuspended in a complete culture medium and counted, and the cell suspension was adjusted to 2.5×10^6 cells/mL with the culture medium and cultured overnight. […] The supernatant was collected, and the TNF-α and IFN-α concentration levels in the supernatant were detected using an ELISA kit. Dose-response data were fitted to an S-shaped curve using non-linear regression, and IC50 values were calculated.
IFN-α concentration assay was performed using a Dakewe IFN-α ELISA kit (Cat. No. 1110012). […] The reading at wavelength 450 nm was detected using an M2e instrument within 10 min after the termination. […]

The subject of data set [2] is cynomolgus monkey whole blood stimulated with CpG-A. Description: IFN-α after in vitro CpG-A stimulation of whole blood of dosed cynomolgus monkeys. The format is in vivo. The arrangement: average expression level of IFNα on days 0-33 after administration: unit not given here. To be noted: 10 mg/kg i.v. The method, then:
Cytokine expression was detected by whole blood stimulation in vitro.
The cells were cultured at 37° C. for 18 h, and the supernatant was collected. The TNF-α and IFN-α concentration levels in the supernatant were detected using an ELISA kit.
IFN-α concentration assay was performed using a Mabtech Human IFN-α (pan specific) ELISA kit (Cat. No. 3425-1H-20). 50 μL of serially diluted cytokine standard was added to each standard well, 50 μL of test sample was added to each sample well, and 50 μL of PBS was added to each blank control well. The cells were incubated at 37° C. for 2 h. The plate was washed 3 times, the liquid in each well was removed, and 300 µL of 1× PBST buffer working solution was added to each well; and after 1 minute of residence, the liquid in each well was discarded. 100 μL of detection antibody working solution was added to each well, and the cells were incubated at 37° C. for 1 h. […] The reading at wavelength 450 nm was detected using a Molecular device spectra max plus384 instrument within 10 min after the reaction was stopped.
Evaluation criteria in FIGS. 12-13: the average expression level changes of IFNα/TNFα were evaluated after in vitro stimulation of the whole blood with CpGA at 200 μg/mL on days 0-33 after administration. […]

The test system of a further data set is GR reporter gene cells. Kind of data set: Bystander killing effect assay with GR reporter gene cells mixed with HEK293-humanBDCA2 or HEK293 cells. The format is cell-based, human. To be noted: compared to isotype control antibody conjugate; 0.01-100 nM, 24 h. As for the experimental part: HEK293 cells cultured to the logarithmic growth phase were digested with TrypLE trypsin. The cells were collected, and the cell concentration was adjusted to 2×10^5 cells/mL using DMEM+10% FBS. 30 mL of the cells were seeded into a culture flask, and 1.5 mL of a transfection reagent was prepared according to the table doses.
1.5 mL of the transfection reagent was mixed with 30 mL of the cells, and after 24 h of culture, GR reporter gene cells were collected. The GR reporter gene cells obtained by transfection were mixed with HEK293-humanBDCA2 cells or HEK293 cells at a ratio of 1:1 and added to a 96-well culture plate at 2×10^4 cells/well. The test reagent, positive control (dexamethasone, compound 4 in Example 2) and negative control (isotype IgG-ADC) were added at concentrations of 0.01-100 nM as designed for the experiment. After 24 h of incubation, the Promega Dual-Glo Luciferase Assay System detection reagent was added according to the manufacturer's instructions, and the Firefly and Renilla fluorescence signals were detected by Enspire reader. The glucocorticoid receptor signal produced by the bystander killing effect of the conjugate was calculated by dividing the Firefly signal by the Renilla signal.
On the technique in general: Reporter assays use an easily measured gene product as a stand-in for the process of interest.

These results are taken from patent US20260216362A1, “ANTI-BDCA2 ANTIBODY-DRUG CONJUGATE AND USE THEREOF” (DUALITY BIOLOGICS (SHANGHAI) CO., LTD., priority 2022, published 2026).

B1: Hu033-03-ADC (conjugate)
heavy: EVQLVESGGGLVKPGGSLRLSCAASGFTFSSYGMSWVRQAPGKGLEWVSTISSGDSYTYYPDSVKGRFTISRDNAKNSLYLQMNSLRAEDTAVYYCARQIYYDYAYYFDFWGQGTTVTVSS[human IgG1 constant region not spelt out]
light: DIVLTQSPASLAVSPGQRATITCRASESVSFRTSHLMHWYQQKPGQPPKLLIYGASNLESGVPARFSGSGSETDFTLTINPVEAEDTANYFCQQSIEDPPTFGGGTKVEIKRTVAAPSVFIFPPSDEQLKSGTASVVCLLNNFYPREAKVQWKVDNALQSGNSQESVTEQDSKDSTYSLSSTLTLSKADYEKHKVYACEVTHQGLSSPVTKSFNRGEC
For the molecule B1, the “inhibition of IFN-α secretion” value in data set [1] is “stronger ability to inhibit IFN-α secretion”. Also, in data set [2] (CpGA-stimulated whole blood), the “IFN-α expression level compared to the blank control group” value is recorded as “reduced”. Also, the “average expression level of IFNα on days 0-33 after administration” value in data set [2] (whole blood stimulated with CpGA 200 μg/mL, before administration 34.2 (FIG. 12b) and 34.4 (FIG. 12c)) was 7.6. Moreover, the “activation of GR reporter gene cells (bystander killing effect)” value with GR reporter gene cells is on record as “specifically activated GR reporter gene cells in the presence of BDCA2 expression”.
